The source of these data is the supplement of paper PMC4166925.

± gives the standard deviation of the averaged measurements. In all, about 33,000 sequences were measured (“E-score (dimensionless, -0.5 to 0.5)”: median about -0.046, highest 2% from about 0.36 on). The list shows a part of the results.
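Note: protein at 200 nM in PBS on universal double-stranded arrays.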

The subject of this assay is T1, SpTbr T-box DNA-binding domain (GST fusion).
T1 sequence: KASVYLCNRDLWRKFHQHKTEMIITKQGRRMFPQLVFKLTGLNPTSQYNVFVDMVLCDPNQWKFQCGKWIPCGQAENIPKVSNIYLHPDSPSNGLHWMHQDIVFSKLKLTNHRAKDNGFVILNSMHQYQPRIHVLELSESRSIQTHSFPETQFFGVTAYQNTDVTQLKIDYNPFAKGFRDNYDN
Briefly: PBM E-score of 8-mer (E-score (dimensionless, -0.5 to 0.5)); Tbr is Tbrain of the sea star Patiria miniata (Pm) or the sea urchin Strongylocentrotus purpuratus (Sp); higher = stronger binding preference; most listed sequences are background and not binding sites. Particulars: the construct has about 5 more residues each side. As for the experimental part:
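Universal protein-binding microarray (Agilent AMADID 016060, 60-bp probes with a 35-bp variable region) incubated with 200 nM GST-fused Strongylocentrotus purpuratus Tbr T-box DNA-binding domain (residues 362-554) in PBS pH 7.5. Scored for every ungapped 8-mer (given with its reverse complement) as E-score (range -0.5 to 0.5; >0.45 counts as bound) and Z-score of median probe intensity. Two replicate arrays (datasets 1 and 2).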
Take ACATTAAT: the “PBM E-score of 8-mer” value is -0.219 ± 0.038. Next, CTTCAATC: 0.037 ± 0.033; CGGAGGGC: -0.0279 ± 0.049; AACCTAGC: -0.0309 ± 0.0034.

Regarding CCGTTGGA, the “PBM E-score of 8-mer” value was -0.109 ± 0.035. On to AGAGAGAG, for which the “PBM E-score of 8-mer” value turned out to be 0.0384 ± 0.024. Regarding ATAACCCA, the “PBM E-score of 8-mer” value is -0.0973 ± 0.043. For GATTGTCA, the “PBM E-score of 8-mer” value was 0.248 ± 0.0068.

In the case of TCCGACGA, the “PBM E-score of 8-mer” value was 0.119 ± 0.02. In the case of CAATTCCC, the “PBM E-score of 8-mer” value was -0.166 ± 0.032. Take CATTGCAC: the “PBM E-score of 8-mer” value was found to be 0.11 ± 0.024.

TGCGTCAA: the “PBM E-score of 8-mer” value is 0.145 ± 0.012. As for AGCTTTCC, the “PBM E-score of 8-mer” value came to 0.0219 ± 0.081.

On to AGAGCCGA, for which the “PBM E-score of 8-mer” value was -0.0992 ± 0.045.

For the sequence ATCCGAAC, the “PBM E-score of 8-mer” value was -0.233 ± 0.033. Next, AGGTGAGA: 0.4826 ± 0.0046. Consider CTAGTACA, for which the “PBM E-score of 8-mer” value turned out to be 0.171 ± 0.0048.

For GGCTATTA, the “PBM E-score of 8-mer” value was -0.117 ± 0.12.

On to CGTACCAA, for which the “PBM E-score of 8-mer” value is -0.0588 ± 0.05. Next, CTCTGTGA: 0.094 ± 0.062; ACCACGAA: -0.0504 ± 0.045; ACGTGATG: 0.0808 ± 0.05. As to AAACAGCG, the “PBM E-score of 8-mer” value was 0.0862 ± 0.049. Next, GTGGACGA: -0.0409 ± 0.08; ATGGCAGC: 0.0838 ± 0.045.

As to AGGAAAAC, the “PBM E-score of 8-mer” value is -0.188 ± 0.049.

On to CTCACTGC, for which the “PBM E-score of 8-mer” value came to 0.0922 ± 0.076. In the case of GACTATTA, the “PBM E-score of 8-mer” value is -0.223 ± 0.022. As for TTTAAAAA, the “PBM E-score of 8-mer” value is -0.275 ± 0.034. CATGTAGG: the “PBM E-score of 8-mer” value is 0.0316 ± 0.017.

Take ATGGATAA: the “PBM E-score of 8-mer” value is -0.264 ± 0.017. Turning to AGGGAATC, the “PBM E-score of 8-mer” value was -0.228 ± 0.039. Next, ATAACGAT: 0.0577 ± 0.043. Take AGGGAAGA: the “PBM E-score of 8-mer” value was -0.221 ± 0.0054. As to AGCCGTCG, the “PBM E-score of 8-mer” value worked out at 0.0127 ± 0.019. Turning to AAATACTG, the “PBM E-score of 8-mer” value was -0.296 ± 0.014. Take ACTGCGCG: the “PBM E-score of 8-mer” value is -0.0444 ± 0.0048. With CACGGAGG, the “PBM E-score of 8-mer” value came out at 0.0809 ± 0.048.

Consider CATACGGG, for which the “PBM E-score of 8-mer” value was -0.188 ± 0.04. CAAGTATA: the “PBM E-score of 8-mer” value was -0.0826 ± 0.084. For the sequence AGTAATGC, the “PBM E-score of 8-mer” value is -0.147 ± 0.065.

In the case of AACCGAGA, the “PBM E-score of 8-mer” value was found to be 0.113 ± 0.045. For CACGCGGG, the “PBM E-score of 8-mer” value worked out at 0.245 ± 0.0052. Under CGAGGCTC stands -0.174 ± 0.0092.

For the sequence CTAGCGGA, the “PBM E-score of 8-mer” value is -0.0583 ± 0.019.

Take GTAAACCA: the “PBM E-score of 8-mer” value was 0.112 ± 0.029.

For ATTCGTAG, the “PBM E-score of 8-mer” value was -0.0997 ± 0.051. On to CTCCCCAC, for which the “PBM E-score of 8-mer” value came to 0.097 ± 0.09. Consider ATTTTCAG, for which the “PBM E-score of 8-mer” value was -0.243 ± 0.02.

Turning to TCGACAAA, the “PBM E-score of 8-mer” value was 0.159 ± 0.054. Turning to GCTAGCCC, the “PBM E-score of 8-mer” value was -0.0334 ± 0.073. Turning to ATCCTCTA, the “PBM E-score of 8-mer” value was -0.247 ± 0.081. Under GGTAAGAA stands -0.02 ± 0.051. With AACGTCGG, the “PBM E-score of 8-mer” value was -0.15 ± 0.052. Regarding ATAGCTTA, the “PBM E-score of 8-mer” value was -0.133 ± 0.021.

With CATGATGC, the “PBM E-score of 8-mer” value is -0.146 ± 0.043.

On to ATGGCTAG, for which the “PBM E-score of 8-mer” value was -0.134 ± 0.017. Consider AGGAGACC, for which the “PBM E-score of 8-mer” value is -0.232 ± 0.028. Next, CGTGTGCC: 0.0456 ± 0.035; GCAGCCCC: -0.15 ± 0.027. Take ATGGCGCG: the “PBM E-score of 8-mer” value came to 0.184 ± 0.074. Consider CCGTGCGC, for which the “PBM E-score of 8-mer” value is -0.0316 ± 0.046. In the case of ACCTTACG, the “PBM E-score of 8-mer” value amounted to 0.154 ± 0.035. Take GGATATTA: the “PBM E-score of 8-mer” value is -0.28 ± 0.018. In the case of AGATGCAT, the “PBM E-score of 8-mer” value was -0.0592 ± 0.02. Next, CAACTCAG: 0.0384 ± 0.031; CACCCAAA: -0.00315 ± 0.023.

As to ACCAATAA, the “PBM E-score of 8-mer” value is -0.11 ± 0.041.

In the case of CTGCGTAA, the “PBM E-score of 8-mer” value was -0.152 ± 0.034. As for CTTTTGCA, the “PBM E-score of 8-mer” value stood at 0.0339 ± 0.067. Consider CCATAGGA, for which the “PBM E-score of 8-mer” value was -0.1 ± 0.037. For TCCAGGAA, the “PBM E-score of 8-mer” value was -0.177 ± 0.0033. Turning to AAATTCAG, the “PBM E-score of 8-mer” value is -0.0152 ± 0.023. Take ATCCAGAG: the “PBM E-score of 8-mer” value is -0.25 ± 0.021. With GTGCAAAA, the “PBM E-score of 8-mer” value came to 0.237 ± 0.068.

For the sequence AGTCAGCG, the “PBM E-score of 8-mer” value is -0.14 ± 0.041.

In the case of GAACCACC, the “PBM E-score of 8-mer” value was -0.0115 ± 0.036. With TCCCCTAA, the “PBM E-score of 8-mer” value is -0.144 ± 0.02. For the sequence TCGCAAGA, the “PBM E-score of 8-mer” value was 0.167 ± 0.016.

As to CTTGACGC, the “PBM E-score of 8-mer” value stood at 0.324 ± 0.011. Next, GTCGGAGA: -0.119 ± 0.034; ACTGCTGC: -0.0667 ± 0.011. For ACTTGCGG, the “PBM E-score of 8-mer” value came out at 0.0502 ± 0.018. Next, ACCAGCTG: 0.0355 ± 0.059. Under TACGTACA stands -0.0846 ± 0.028; under AAGTCAGG, -0.243 ± 0.14.
